The campaign covered roughly 45,000 compounds. About 65 (0.1%) were called active. The call rests on the fitted dose curve; in most records, active means well fitted activation curve with a large enough effect; inconclusive means small, poorly fitted or top-dose-only effect; inactive means no such curve, though single readings can be large or run the other way. The list shows a part of the results.
molecular target: Galactocerebrosidase (Homo sapiens) (UniProt P54803); assay: A Novel Cell-Based Assay to Identify Small Molecules for B -Galactocerebrosidase; settings: 145M-Twi-hGALC-G270D cells (Twitcher mouse brain line with human GALC G270D), HMU-beta-Gal fluorescence, 48 h; series mostly up to 57.5 µM; activation: at the top concentration; further: 0% is about no effect; nearly all actives have a fitted effect of over 65% in size
Method in brief: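 Fluorogenic HMU-b-Gal hydrolysis (0.1 mM final, pH 5.2 citrate-phosphate with 1 mg/mL sodium taurocholate; carbonate stop buffer) measures mutant GALC activity after compound treatment of live 145M-Twi Twitcher brain cells stably carrying human GALC-G270D, with wild-type GALC line alongside; activation sought.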

UniProt P54803, sequence (P54803 whole entry, looked up): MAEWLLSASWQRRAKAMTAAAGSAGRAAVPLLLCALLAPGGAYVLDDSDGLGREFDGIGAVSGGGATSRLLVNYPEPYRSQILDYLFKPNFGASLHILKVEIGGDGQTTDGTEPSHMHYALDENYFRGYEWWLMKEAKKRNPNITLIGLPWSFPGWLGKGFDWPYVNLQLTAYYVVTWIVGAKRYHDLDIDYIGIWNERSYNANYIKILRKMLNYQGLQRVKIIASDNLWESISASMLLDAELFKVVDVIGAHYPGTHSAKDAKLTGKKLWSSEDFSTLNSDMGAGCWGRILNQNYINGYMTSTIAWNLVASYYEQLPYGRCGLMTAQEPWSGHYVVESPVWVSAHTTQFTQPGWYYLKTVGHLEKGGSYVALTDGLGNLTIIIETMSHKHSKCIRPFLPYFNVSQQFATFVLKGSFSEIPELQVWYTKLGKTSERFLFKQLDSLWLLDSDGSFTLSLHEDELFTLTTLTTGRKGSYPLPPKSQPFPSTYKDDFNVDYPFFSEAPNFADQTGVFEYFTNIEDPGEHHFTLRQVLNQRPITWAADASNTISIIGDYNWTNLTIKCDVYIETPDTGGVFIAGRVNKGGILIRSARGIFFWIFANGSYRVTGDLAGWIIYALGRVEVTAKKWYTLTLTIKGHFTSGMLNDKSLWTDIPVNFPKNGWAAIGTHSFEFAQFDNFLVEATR

activation, inactive:
CCN(Cc1ccccc1)C(=O)C1CCN(S(=O)(=O)c2ccc3c(c2)CCCN3C(C)=O)CC1 -18.2%
O=C(CSc1nccn1Cc1ccc(F)cc1)Nc1nc2ccccc2s1 -34.1%
CN(C)CC/C=C1\c2ccccc2Sc2ccc(Cl)cc21 -1.24%
c1ccc([C@H]2CN3CCSC3=N2)cc1 -4.66%
COc1cc(NC(=O)C2=CC(c3ccc(F)cc3)=NS(=O)(=O)N2C)cc(OC)c1OC -8.46%
CCN(CC)c1cc(C)c2cc(NC(=O)/C=C/c3cc(OC)c(OC)c(OC)c3)ccc2n1 -21.3%
CC(C)c1nnc(N2C(=O)c3oc4ccccc4c(=O)c3C2c2ccccc2F)s1 (stereo not drawn) -12.2%
COc1ccc(-n2nc(C(=O)N3CCCCC3C)c3c4ccccc4n(C)c3c2=O)cc1Cl (stereo not drawn) -9.32%
N#Cc1ccc(-c2cccs2)nc1SCc1ccc(Br)cc1 -14%
CCOC(=O)c1ccc(NC(=O)Cn2c(=O)cc(C)c3c(C)nn(-c4ccc(CC)cc4)c32)cc1 -3.06%
CC(C)N(C(=O)CSc1cn(CC(=O)N2CCCCCC2)c2ccccc12)C(C)C -15.4%
Cc1coc2c(C)c3oc(=O)c(CCC(=O)NCCc4ccccc4F)c(C)c3cc12 -9.15%
COc1cccc(C(=O)Nc2ccccc2C(=O)OCc2cc(=O)n3c4c(sc3n2)CCCC4)c1 -23.9%
COc1ccc(CNC(=O)CN(C)S(=O)(=O)c2ccc3nc(C)sc3c2)cc1 -6.34%
Cc1cccc(CC(=O)N2CC(=O)Nc3ccc(Br)cc3C2c2ccc(F)cc2)c1 (stereo not drawn) -22%
CCc1cccc(-n2nnc(-c3nsc(NC(=O)c4cccc(OC)c4)n3)c2C)c1 -4.05%
O=C(Cn1ncc2c3ccccc3n(Cc3ccccc3F)c2c1=O)NCc1ccccc1Cl -7.04%
Cc1cc2c(cc1S(=O)(=O)Nc1cccc(C#N)c1)OCC(=O)N2 -4.89%
CN(Cc1ccccc1)C(=O)c1ccc(CSc2nc3cccnc3n2Cc2ccccc2F)cc1 -13.8%
COc1ccc(NC(=O)Cn2c(=O)n(CCC(=O)NCC3CCCO3)c(=O)c3cc(OC)c(OC)cc32)cc1 (stereo not drawn) -19.1%
COc1ccccc1Nc1sc(C(=O)c2ccc(F)cc2)c(N)c1S(=O)(=O)c1ccc(C)cc1 -15.7%
COc1ccc(Br)cc1S(=O)(=O)Nc1cc(-c2cn3ccccc3n2)ccc1C -12.7%
CCOc1ccc(CCNC(=O)c2cn(-c3ccc(OC)cc3)c(=O)c3ccccc23)cc1OCC 1.9%
CCOc1ccc(CNC(=O)C2CCCN(c3nnc(C)c4c(C)n(-c5ccccc5)nc34)C2)cc1 (stereo not drawn) -11.8%
CCOc1cc(C2NC(=O)c3c(sc4c3CCN(C)C4)N2)ccc1OC(=O)c1ccc(Br)cc1 (stereo not drawn) 4.37%
COc1ccc(-c2noc(-c3ccc(N4CCCC4)c([N+](=O)[O-])c3)n2)cc1OC -11.1%
CCc1ccc(-n2nc(C)c3c(C(=O)N4CCN(c5ccccc5)CC4)cc(C)nc32)cc1 -11.8%
CCC(=O)O[C@]1(C(=O)CCl)[C@@H](C)C[C@H]2[C@@H]3CCC4=CC(=O)C=C[C@]4(C)[C@@]3(F)[C@@H](O)C[C@@]21C -16.5%
CCC(=O)N1CCCc2cc(S(=O)(=O)N3CCC(C(=O)NCc4ccc(F)cc4)CC3)ccc21 -12.8%
COc1ccc(C)cc1NC(=O)c1cc2c(=O)n3cccc(C)c3nc2s1 -1.98%
Cc1cccc(C)c1-n1ncc(C(=O)O)c1C1CCN(C(=O)OC(C)(C)C)CC1 -8.63%
Cc1nn2c(C)c(C(=O)NC(C)c3ccccc3)cnc2c1-c1ccc(F)cc1 (stereo not drawn) -3.8%
CCOc1ccc(NC(=O)Cn2cnc3sc(C)c(S(=O)(=O)N4CCN(c5ccccc5OC)CC4)c3c2=O)cc1 -8.19%
COc1ccc(NC(=O)c2ccco2)cc1NC(=O)C(C)(C)Oc1ccc(Cl)cc1 -9.48%
COc1ccc(OC)c(C2CC(=O)Oc3c2c(=O)n(C)c2ccccc32)c1 (stereo not drawn) 8.25%
O=C(NCC(c1cccs1)S(=O)(=O)c1ccccc1)c1ccc(C(F)(F)F)cc1 (stereo not drawn) -6.84%
O=C(Nc1ccc(F)cc1)c1ccc2c(=O)n3c(nc2c1)CCCCC3 5.66%
Cc1cccc(N(CC(=O)Nc2ccccc2C(F)(F)F)S(=O)(=O)c2ccccc2)c1C 4.21%
COc1ccc(Cl)cc1NC(=O)c1cn(C2CCCC2)c(=O)c2c1c1ccccc1n2C -3.92%
CN(C)CCNC(=O)Cn1ccc2cc(S(=O)(=O)N3CCCCCC3)ccc21 7.78%
Cc1cccc(Cn2c(-c3cccc(Br)c3)nc3ccccc32)c1 -11%
COc1ccccc1C(=O)NC1(C(F)(F)F)C(=O)Nc2c1c(=O)[nH]c(=O)n2-c1ccc(F)cc1 (stereo not drawn) 0.964%
COc1ccc(CNC(=O)CSc2ncc3c(n2)-c2ccc(Cl)cc2N(Cc2ccccc2)S3(=O)=O)cc1 2.49%
Cc1cc(Cl)ccc1OCC(=O)N(Cc1ccco1)Cc1ccccc1F -7.29%
COCCCNC(=O)CSc1nc2c(sc3ccccc32)c(=O)n1CCc1ccc(OC)c(OC)c1 -5.54%
O=C(Cc1ccccc1)Nc1sc2c(c1C(=O)Nc1cccc(Cl)c1)CCCCC2 -12.5%
CCc1nn2c(=O)cc(COC(=O)Cc3ccccc3)nc2s1 -13.8%
CC(=O)c1ccc(NC(=O)C2CCN(c3nnc(C)c4c(C)n(-c5ccccc5)nc34)CC2)cc1 -14.9%
CC(C)(C)C1CCc2c(sc(NC(=O)c3cccc(Cl)c3)c2C(=O)NCc2ccco2)C1 (stereo not drawn) -4.84%
CC(C)OCCCn1c(=O)c2ccccc2n2c(-c3ccccc3)nnc12 -22.6%
Cc1ccc(-c2cc(C(=O)N3CCN(S(=O)(=O)c4ccc(Br)cc4)CC3)[nH]n2)c(C)c1 5.83%
CC(C)CCOc1ccc(Cn2c(=O)oc3ccccc32)cc1 -11.8%
Cc1ccc(S(=O)(=O)c2cn(Cc3ccccc3)c3cc(N4CCCCC4)c(F)cc3c2=O)cc1 -12.1%
COc1cc(OC)c(NC(=O)CCS(=O)(=O)c2ccc3c(c2)oc(=O)n3C)cc1Cl -21.5%
O=C(NCc1ccco1)c1ccc(Cn2c(SCc3ccccc3)nc3cccnc32)cc1 -7.25%
COc1ccc(NC(=O)CSC2=Nc3ccccc3C3=NC(CC(=O)NCCc4ccccc4)C(=O)N23)cc1 (stereo not drawn) -7.89%
COc1ccc(NCc2cccn2-c2nnc(N3CCCCCC3)s2)cc1 -22.1%
CC1=C(C(=O)Nc2ccccc2C)C(c2cccs2)n2nc(SCc3ccccc3)nc2N1 (stereo not drawn) -3.08%
CCc1ccc(S(=O)(=O)NCc2ccc3c(c2)CCN3C(=O)c2ccc(C)cc2)cc1 2.85%
CN(Cc1ccccc1)C(=O)CSc1nnc(-c2cccc(Cl)c2)o1 -13.4%
CCOC(=O)c1c(C)sc(-c2c(-c3ccccc3)[nH]c3[nH]c(=O)[nH]c(=O)c23)c1O 2.39%
CCc1ccc(CNC(=O)C2COc3ccc(OC)cc3C2)cc1 (stereo not drawn) -1.34%
COc1ccc(-c2noc(-c3ccc(N4CCOCC4)c([N+](=O)[O-])c3)n2)cc1 -4.45%
CN(C(=O)CC(=O)Nc1ccc2nc3n(c(=O)c2c1)CCCCC3)c1ccccc1F 10.4%
Cc1scc(CN2CCN(c3ccccc3F)CC2)c1C -11.1%
O=C(Cn1ncc2c(Cl)cccc21)NCc1cccc(Cl)c1 -1.07%
CCc1ccc(-n2nc(CO)c(C(=O)NCCOC)n2)cc1 -6.39%
CCn1cc(S(=O)(=O)c2cc(C)cc(C)c2)c(=O)c2cc(F)c(N3CCCCC3)cc21 -16.1%
CC(C)(C)C1CCc2c(sc(NC(=O)C3c4ccccc4Oc4ccccc43)c2C(N)=O)C1 (stereo not drawn) -7.28%
CCC(=O)N1c2ccc(S(=O)(=O)CCC(=O)NCc3ccccc3OC)cc2CC1C (stereo not drawn) -10.7%
COc1ccc(OC)c(CNC(=O)Nc2cn(CC(C)C)c(=O)c3ccccc23)c1 -32.1%
COc1ccc(Nc2c3c(nc4ccccc24)CCC3)cc1Cl -46.9%
Cc1cccc(NC(=O)Cn2c(=O)n(Cc3ccc4c(c3)OCO4)c(=O)c3oc4ccccc4c32)c1C -13.4%
Cc1ccc(CN(C(=O)COc2ccccc2Cl)c2ccccn2)o1 -14%
Cc1ccc(CNS(=O)(=O)c2ccc(C(=O)N(C)C)s2)cc1 -1.98%
CCOc1ccc(NC(=O)Cn2c(=O)n(Cc3ccc4c(c3)OCO4)c(=O)c3ccc(C(=O)NC4CCCCC4)cc32)cc1 -6.2%
O=C(Nc1ccc(S(=O)(=O)N2CCC(c3nc4ccccc4s3)CC2)cc1)c1ccccc1 -8.54%
Cc1ccc(CNC(=O)Nc2cc(C(=O)NCc3cccc(F)c3)ccc2N2CCCC2)cc1 -16.7%
COC(=O)c1nnn(CC(=O)NC(=O)Nc2ccc(F)cc2)c1C(=O)OC -15.6%
CC(=O)N1CCc2cc(Br)cc(S(=O)(=O)N3CCC(C(=O)Nc4cccc(C)c4C)CC3)c21 -9.4%
COCCSc1nc2c([nH]c3ccccc32)c(=O)n1-c1ccc(OC)c(OC)c1 -11.3%
CCCCn1c(CNC(=O)C23CC4CC(CC(C4)C2)C3)nnc1SCC(=O)Nc1ccc(C)cc1 -32%
CC1CCCCN1Cc1c(O)ccc2c(=O)c(-c3ccccc3Cl)c(C(F)(F)F)oc12 (stereo not drawn) -9.8%
Cc1ccc(C2CC(=O)Nc3cc4c(cc32)OCCO4)cc1Br (stereo not drawn) -12.9%
COCCNC(=O)Cn1ccc2cc(S(=O)(=O)N3CCCCCC3)ccc21 -3.2%
Cc1ccc(-c2noc(CCC(=O)N(C)c3ccccc3F)n2)cc1 -23.1%
CCn1c(=O)c2c(nc3n2CCN3c2ccc(OC)cc2)n(C)c1=O 21.9%
CCOC(=O)N1CCC(n2c(=O)[nH]c3cc(Cl)ccc32)CC1 -8.37%
CCOc1ccc(CCNC(=O)c2cc(=O)[nH]c3ccc(S(=O)(=O)N4CCCCC4C)cc23)cc1OCC (stereo not drawn) -12.9%
Fc1ccccc1-c1nc(N2CCN(c3cccc(Cl)c3)CC2)c2ccccc2n1 -14.9%
CCCc1cc(=O)n2[nH]c(NCc3c(F)cccc3Cl)nc2n1 -20.4%
CCc1nn(CC(=O)NCCc2ccc(SC)cc2)c(=O)c2cc3sccc3n12 13%
Cc1ccc(C)c(N2CCN(C(=O)c3cc(C)nc4c3c(C)nn4-c3ccccc3)CC2)c1 -6.06%
